The source of these data is ChEMBL document CHEMBL4184142, “A Naturally Occurring Isoform-Specific Probe for Highly Selective and Sensitive Detection of Human Cytochrome P450 3A5” (J Med Chem, 2017).

What is called Km is the substrate concentration at which the rate is half of its maximum. The term Vmax denotes the rate approached at saturating substrate.

Substrate in the data set: COc1cc2c(c(OC)c1OC)-c1c(cc(O)c(OC)c1OC)C[C@H](C)[C@](C)(O)[C@H]2OC(=O)c1ccccc1
In words: Substrate activity at recombinant human CYP3A4 expressed in bactosomes assessed as Km for 2-O-demethylation after 20 mins by Eadie-Hofstee plot method. It counts as ADME.

B1: Cytochrome P450 3A4 (Homo sapiens) (protein)
chain: MALIPDLAMETWLLLAVSLVLLYLYGTHSHGLFKKLGIPGPTPLPFLGNILSYHKGFCMFDMECHKKYGKVWGFYDGQQPVLAITDPDMIKTVLVKECYSVFTNRRPFGPVGFMKSAISIAEDEEWKRLRSLLSPTFTSGKLKEMVPIIAQYGDVLVRNLRREAETGKPVTLKDVFGAYSMDVITSTSFGVNIDSLNNPQDPFVENTKKLLRFDFLDPFFLSITVFPFLIPILEVLNICVFPREVTNFLRKSVKRMKESRLEDTQKHRVDFLQLMIDSQNSKETESHKALSDLELVAQSIIFIFAGYETTSSVLSFIMYELATHPDVQQKLQEEIDAVLPNKAPPTYDTVLQMEYLDMVVNETLRLFPIAMRLERVCKKDVEINGMFIPKGVVVMIPSYALHRDPKYWTEPEKFLPERFSKKNKDNIDPYIYTPFGSGPRNCIGMRFALMNMKLALIRVLQNFSFKPCKETQIPLKLSLGGLLQPEKPVVLKVESRDGTVSGA
In the case of B1, the Km was found to be 5.3 µM and the Vmax is 2.46e-06 µmol/min.
